Molecules are shown by their SMILES. Screen size: about 45,000 compounds; about 65 (0.1%) were called active. Calls follow the shape of the dose curve; as a rule, active = well fitted activation curve with a large enough effect; inconclusive = small, poorly fitted or top-dose-only effect; inactive = no such curve, though single readings can be large or run the other way. The list shows a part of the results.

The results in this text go back to PubChem BioAssay AID1159614 (National Center for Advancing Translational Sciences (NCATS), 2016).

The target of the assay is Galactocerebrosidase (Homo sapiens) (UniProt P54803). Put plainly: A Novel Cell-Based Assay to Identify Small Molecules for B -Galactocerebrosidase. Also: 0% is about no effect; nearly all actives have a fitted effect of over 65% in size. Conditions: 145M-Twi-hGALC-G270D cells (Twitcher mouse brain line with human GALC G270D), HMU-beta-Gal fluorescence, 48 h; series mostly up to 57.5 µM; activation: at the top concentration. An outline of the steps: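 Fluorogenic HMU-b-Gal hydrolysis (0.1 mM final, pH 5.2 citrate-phosphate with 1 mg/mL sodium taurocholate; carbonate stop buffer) measures mutant GALC activity after compound treatment of live 145M-Twi Twitcher brain cells stably carrying human GALC-G270D, with wild-type GALC line alongside; activation sought.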
Sequence of UniProt P54803 (P54803 whole entry, looked up): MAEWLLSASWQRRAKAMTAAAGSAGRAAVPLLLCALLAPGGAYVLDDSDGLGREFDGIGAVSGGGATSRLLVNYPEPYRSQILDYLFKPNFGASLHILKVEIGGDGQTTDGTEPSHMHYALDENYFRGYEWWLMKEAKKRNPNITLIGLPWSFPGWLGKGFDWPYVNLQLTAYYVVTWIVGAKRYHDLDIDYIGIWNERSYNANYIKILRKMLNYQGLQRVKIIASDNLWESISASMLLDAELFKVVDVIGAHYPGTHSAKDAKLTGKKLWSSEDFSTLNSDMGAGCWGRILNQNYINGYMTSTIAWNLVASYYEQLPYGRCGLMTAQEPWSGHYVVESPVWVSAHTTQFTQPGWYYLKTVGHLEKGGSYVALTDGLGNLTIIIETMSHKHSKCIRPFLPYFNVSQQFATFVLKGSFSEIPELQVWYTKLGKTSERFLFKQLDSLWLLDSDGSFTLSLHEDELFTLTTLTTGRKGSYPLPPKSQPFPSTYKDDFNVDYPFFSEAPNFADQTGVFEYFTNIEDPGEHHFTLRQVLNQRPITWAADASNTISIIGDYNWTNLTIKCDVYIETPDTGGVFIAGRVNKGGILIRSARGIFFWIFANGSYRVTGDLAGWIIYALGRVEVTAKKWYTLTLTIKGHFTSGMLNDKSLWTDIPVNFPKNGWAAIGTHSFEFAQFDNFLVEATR
Regarding `CCCN(CCC)C(=O)Cn1c(=O)n(-c2ccc(C)cc2)c(=O)c2ccc(C(=O)NCc3ccccc3Cl)cc21`, the “activation” value is inactive: -10.9%.
The figure for `CNC(=O)C1CCN(Cc2cc3ccccc3n2Cc2ccccc2C)CC1` is inactive: -8.81%; for `CCc1sc(Nc2ccc(C)cc2Br)nc1-c1cc2cccc(OC)c2oc1=O` it is inactive: -11%; for `CC(=O)NCCNc1nc2c(-c3ccc(C)cc3)nnn2c2ccccc12` it is inactive: -5.23%.
For the compound `CCOC(=O)CSc1nc2c(sc3ccccc32)c(=O)n1Cc1ccc(C)cc1`, the “activation” value was inactive: -13.8%.
To `CCC1CN(C(=O)N2CCC(C(=O)NCCc3ccc(C)cc3)CC2)c2ccccc2O1` (stereo unspecified) belongs inactive: -4.8%; to `CCCCNC(=O)Cn1c(=O)cc(C)c2c(C)nn(-c3ccc(CC)cc3)c21`, inactive: -11.7%; to `Cc1ccc(-n2nc(CO)c(C(=O)NCC(c3ccccc3)c3ccccc3)n2)cc1`, inactive: 5.17%.
To `O=C(NCc1cccc(Br)c1)C1CCN(C(=O)c2sccc2-n2cccc2)CC1` belongs inactive: -10.2%; to `O=C(CCc1nnc2n(Cc3ccccc3Cl)c(=O)c3ccccc3n12)Nc1ccc(F)c(F)c1`, inactive: -10%.
On to `Cc1oc(-c2ccccc2)nc1CSc1nnc(C)n2c1cc1sccc12`, for which the “activation” value was inactive: 2.33%.
To `CCOCCCNC(=O)CCC(=O)NNc1nc2ccccc2c2nc(-c3ccccc3)nn12` belongs inactive: -14.2%.
With `Cc1ccc(-c2cn3c(n2)sc2cc(C(=O)NCc4cccs4)ccc23)cc1`, the “activation” value was inactive: -23%.
On to `COc1cccc(NC(=O)CSc2nc3c([nH]c4ccccc43)c(=O)n2-c2ccccc2)c1`, for which the “activation” value is inactive: -21.3%.
Regarding `CCOc1ccccc1NC(=O)CSc1nnc(N)s1`, the “activation” value was inactive: -7.78%.
Take `Cc1ccc(NC(=O)CSc2nnc(C)n3c2cc2sccc23)c(C)c1`: the “activation” value is inactive: -8.87%.
The figure for `CCCN1C(=O)c2[nH]nc(-c3ccccc3O)c2C1c1cccc(OCc2ccccc2)c1` (stereo unspecified) is inactive: -6.83%; for `Brc1ccc(-c2nnc3sc(CN4CCCCC4)cn23)cc1` it is inactive: -16%.
In the case of `Cc1ccccc1-c1nnc(CN2CCN(c3cccc(C)c3C)CC2)o1`, the “activation” value is inactive: -9.49%.
`CCC(=O)Nc1ccccc1-c1nc2ccccc2n(CC(=O)c2ccc(C)c(C)c2)c1=O`: the “activation” value was inactive: -14.9%.
The figure for `COc1cc(C(=O)NCC(c2cccnc2)N2CCc3ccccc3C2)cc(OC)c1OC` (stereo unspecified) is inactive: -8.23%; for `COCCNC(=O)C(=O)NCC(c1cccnc1)N1CCN(c2ccccc2OC)CC1` (stereo unspecified) it is inactive: -6.38%.
As for `O=C(NCc1ccccc1Cl)c1cc2c(s1)-c1ccccc1SC2`, the “activation” value was inactive: -5.9%.
As to `Cc1ccc(CSc2ccc(-c3cccs3)nn2)cc1`, the “activation” value was inactive: -15.1%.
For `O=C(Cn1ncc2c3ccccc3n(Cc3ccccc3F)c2c1=O)NC1CCCCCC1`, the “activation” value is inactive: -13.2%.
The figure for `CC(C)(C)NC(=O)c1cnn(-c2ccccc2)c1C1CCN(C(=O)OC(C)(C)C)CC1` is inactive: -10.3%.
The figure for `COc1cc(C2c3c(-c4c(C)cc(C)cc4O)n[nH]c3C(=O)N2CCO)cc(OC)c1OC` (stereo unspecified) is inactive: -19.2%; for `Cc1ccc(-c2cc(-c3ccc4c(c3)NC(=O)CO4)nc3c2COc2ccc(C)cc2-3)cc1` it is inactive: 13.9%.
Take `CN(C)S(=O)(=O)c1ccc(C(=O)NCCS(=O)(=O)N2CCN(c3ccccc3)CC2)cc1`: the “activation” value was inactive: -13.7%.
To `Cc1nc2nc(SCc3c(F)cccc3Cl)nn2c(C)c1Cc1ccccc1` belongs inactive: 2.7%; to `Cc1ccc(CN(C(=O)COc2ccc(Cl)c(C)c2)c2ccccn2)o1`, inactive: -21.8%; to `Cc1oc2ncn(C)c(=O)c2c1C(=O)Nc1ccccn1`, inactive: -7.36%.
The figure for `O=C(CN1C(=O)COc2ccc(S(=O)(=O)N3CCOCC3)cc21)N1CCN(c2cccc(C(F)(F)F)c2)CC1` is inactive: -13%; for `C[C@]12CCC(=O)C=C1C=C[C@@H]1[C@@H]2CC[C@@]2(C)[C@H]1CC[C@@]21CCC(=O)O1` it is inactive: -1.39%; for `Cc1ccc(C(=O)/C=C/c2cn(CC(O)CN3CCc4ccccc43)c3ccccc23)cc1` (stereo unspecified) it is inactive: -5.51%.
As for `Cc1cc(-n2c(C)nc3ccccc3c2=O)ccc1NC(=O)c1ccc(C)c([N+](=O)[O-])c1`, the “activation” value was inactive: -43.6%.
The figure for `COc1ccc(-c2noc(COc3cc(C)c(Br)c(C)c3)n2)cc1OC` is inactive: -17.1%; for `Cc1cc(NC(=O)c2ccccc2Cl)ccc1NC(=O)c1ccccc1` it is inactive: -18.6%.
Turning to `COc1ccc(OC)c(CNC(=O)c2cc3cc4ccc(OC)cc4nc3o2)c1`, the “activation” value was inactive: -16.9%.
The figure for `COC(=O)[C@@H](N)Cc1ccc(O)c(O)c1` is inactive: -20.5%.
As to `Cc1ccc(-c2nn(CC(=O)NC3CCCC3)c3c2cnc2ccc(F)cc23)cc1C`, the “activation” value is inactive: -12.8%.
The figure for `Cc1cc(S(=O)(=O)C(CNC(=O)COc2ccccc2)c2cccs2)ccc1F` (stereo unspecified) is inactive: -8.15%; for `Cc1ccc(CN2CCC(CNC(=O)c3cc4ccc5cccnc5c4[nH]3)CC2)cc1` it is inactive: -16.4%; for `CCOc1cc2sc(N3CCC(C(=O)Nc4ccccc4Cl)CC3)nc2cc1Br` it is inactive: -4.71%.
In the case of `COc1ccc(OCCSc2nc(C)c(Cc3ccccc3)c(=O)[nH]2)cc1`, the “activation” value is inactive: -7.69%.
To `COc1ccc(Oc2nc3c(c(=O)n(C)c(=O)n3C)n2Cc2ccccc2Cl)cc1` belongs inactive: -17.6%.
To `COc1ccccc1Cn1cc(C(=O)c2ccc(Cl)cc2)c(=O)c2cc3c(cc21)OCCO3` belongs inactive: -13.5%; to `COc1ccc(NC(=O)CCN2CCN(CCO)CC2)c(OC)c1`, inactive: -11.8%; to `O=C(Nc1ccc2nc(SCc3ccccc3)sc2c1)c1cccc(F)c1`, inactive: -12%.
`Cc1ccccc1C(=O)Nc1nnc(SCc2cc(=O)n3ccccc3n2)s1`: the “activation” value was inactive: -8.73%.
`CCOc1ccc(C(=O)CSc2nnc3cc(C)c4ccccc4n23)cc1`: the “activation” value is inactive: -13%.
To `CCOc1cc(C(=O)Nc2nnc3n2CCS3)cc(OCC)c1OCC` belongs inactive: -19.3%.
In the case of `COc1ccccc1CNC(=O)COc1cc(=O)n(C)c2ccccc12`, the “activation” value is inactive: -8.93%.
In the case of `CN1CCN(C(=O)c2ccc3c(c2)N(Cc2c(F)cccc2Cl)C(=O)c2ccccc2S3)CC1`, the “activation” value is inactive: -2.46%.
To `CCc1sc(Nc2ccc(Cl)cc2)nc1-c1cc2cccc(OC)c2oc1=O` belongs inactive: 2.44%; to `Cc1cc(OCC(=O)Nc2cc(-c3nc4ccccc4[nH]3)ccc2C)ccc1Cl`, inactive: -13.9%; to `CCSc1oc(-c2ccc(F)cc2)nc1S(=O)(=O)c1ccc(C)cc1`, inactive: -28.3%.
Turning to `CC(C(=O)Nc1ccc(F)c(Cl)c1)N1Cc2ccccc2C1=O` (stereo unspecified), the “activation” value is inactive: -16.7%.
To `COc1ccc(-c2noc(N3CCN(c4cccc(Cl)c4)CC3)n2)cc1OC` belongs inactive: -5.56%; to `CCCCC(CC)CNC(=O)c1ccc2c(=O)n(CCOC)c(=O)[nH]c2c1` (stereo unspecified), inactive: -9.69%; to `CC(=O)c1cccc(S(=O)(=O)N2CCN(c3ccccc3F)CC2)c1`, inactive: -11.6%.
`Cc1ccc(N(CC(=O)NCC(C)c2ccccc2)S(=O)(=O)N(C)C)cc1` (stereo unspecified): the “activation” value was inactive: 2.28%.
The figure for `CC(C)(C)c1ccc(C(=O)NCC(c2cccs2)S(=O)(=O)c2ccc(F)cc2)cc1` (stereo unspecified) is inactive: -28.7%; for `Cc1ccc(C(=O)c2cn(Cc3ccccc3F)c3cc4c(cc3c2=O)OCO4)cc1` it is inactive: -6.78%; for `COC(=O)c1ccc(Cl)cc1NC(=O)N1CCC(CN2CCCC2)CC1` it is inactive: -1.66%.
With `N#C/C(=C\c1ccc(Br)cc1)c1nc(-c2cc3cc(Br)ccc3oc2=O)cs1`, the “activation” value was inactive: -15.7%.
Consider `O=C(Nc1ccc(Br)cc1)c1ccc(Br)c(S(=O)(=O)N2CCCCC2)c1`, for which the “activation” value is inactive: -21.2%.
The figure for `COC(=O)c1c(NC(=O)COc2ccccc2Cl)sc2c1CCC(C(C)(C)C)C2` (stereo unspecified) is inactive: -13.3%; for `Cc1ccc(CCNC(=O)c2cc3sccc3n2Cc2ccc(F)cc2)cc1` it is inactive: -11.7%.
`Cc1cn2c(=O)cc(COC(=O)c3cccc(NC(=O)COc4ccc(Cl)cc4)c3)nc2s1`: the “activation” value was inactive: -5.87%.
To `COc1ccc2cc3cc(C(=O)NCCc4ccccc4)sc3nc2c1Cl` belongs inactive: -15.7%; to `CCc1ccc(S(=O)(=O)c2c[nH]c3cc(OC)c(OC)cc3c2=O)cc1`, inactive: -12.7%; to `CCc1ccccc1N(C)S(=O)(=O)c1ccc2[nH]cc(C(=O)NCCOC)c(=O)c2c1`, inactive: -18.5%.
As for `CC1(C)O[C@@H]2C[C@H]3[C@@H]4CCC5=CC(=O)C=C[C@]5(C)[C@@H]4[C@@H](O)C[C@]3(C)[C@]2(C(=O)CO)O1`, the “activation” value was inactive: -6.69%.
Turning to `O=C(Cn1c(=O)n(-c2ccc(Cl)cc2)c(=O)c2sc3ccccc3c21)NC1CCCCC1`, the “activation” value was inactive: -5.29%.
With `COc1cccc(NC(=O)C(=O)NCC(c2ccc3c(c2)OCO3)N2CCOCC2)c1` (stereo unspecified), the “activation” value was inactive: 4.21%.
To `COc1ccc(-c2cc(C(F)(F)F)nc(NCc3ccccc3)n2)cc1` belongs inactive: -4.88%; to `Cc1ccccc1NC(=O)Cn1c(=O)n(-c2ccc(CC(=O)NCC3CCCO3)cc2)c(=O)c2ccccc21` (stereo unspecified), inactive: -14.4%.
To `CN(Cc1ccccc1)C(C(=O)NC1CCCCC1)c1ccc(Cl)cc1` (stereo unspecified) belongs inactive: -3.42%; to `COc1cc(OC)c(NC(=O)CCn2cccn2)cc1Cl`, inactive: -12.1%.
On to `Fc1ccc(C(Nc2ccc(Cl)c(C(F)(F)F)c2)c2nnc(-c3ccccc3)o2)cc1` (stereo unspecified), for which the “activation” value is inactive: -6.81%.
To `Cc1ccc(NC(=O)CSc2nc3ccccc3c3nc(CCn4cncc4C)nn23)c(C)c1` belongs inactive: -15.6%; to `COc1cccc(-c2nc(CS(=O)(=O)CC(=O)Nc3cc(F)ccc3F)c(C)o2)c1`, inactive: -11.6%; to `Cc1ccc(OCC(=O)N(Cc2ccco2)Cc2ccco2)cc1`, inactive: 4.06%.
Consider `Cc1c2cnn(-c3ccccc3)c(=O)c2c(C)n1CC(=O)N1CCN(c2ccc(F)cc2)CC1`, for which the “activation” value is inactive: -9.15%.
On to `CCN(CCCNC(=O)CSc1cc(=O)n(C)c2cc(Cl)ccc12)c1cccc(C)c1`, for which the “activation” value is inactive: -33%.
Take `COc1cc(-c2noc(-c3ccc(N4CCOCC4)c([N+](=O)[O-])c3)n2)cc(OC)c1OC`: the “activation” value was inactive: -14.3%.
To `COc1ccc2nc3sc(C(=O)N4CCN(c5ccccc5)CC4)cc3cc2c1` belongs inactive: 0.698%; to `COc1ccc(CCNC(=O)CCn2c(=O)c3ccccc3n(Cc3c(C)cc(C)cc3C)c2=O)cc1OC`, inactive: -6.92%; to `CCS(=O)(=O)c1nc2ccccc2n1CC(=O)Nc1ccccc1C(=O)OC`, inactive: -11.5%.
To `CCc1ccc(C(=O)c2c(N)c(-c3nc(-c4ccc5c(c4)OCO5)cs3)c3ccccn23)cc1` belongs inactive: -9.84%.
The figure for `Oc1c(C(c2ccc(Br)cc2)N2CCOCC2)sc2nc(-c3ccco3)nn12` (stereo unspecified) is inactive: -3.03%; for `CCCCNc1nc2c(S(=O)(=O)c3ccc(Cl)cc3)nnn2c2ccsc12` it is inactive: -10.9%.
As for `Cc1nn(-c2ccccc2)c2c1N(CCCC(=O)NCc1ccc(Cl)cc1)C(=O)CS2`, the “activation” value is inactive: -1.25%.
The figure for `O=C(NCc1ccco1)c1c[nH]c2ccc(S(=O)(=O)Nc3ccc(F)cc3F)cc2c1=O` is inactive: 3.32%; for `CN1CCN(C(=O)c2cnn(-c3cccc(Cl)c3)c2C2CCN(C(=O)OC(C)(C)C)CC2)CC1` it is inactive: -17.7%.
